# In the BET-seq Pho4 binding data (Le et al. 2018):
# The list shows a part of the results. Values were computed here from the reads of four pooled replicates and scatter widely.
# Biological target: T1, Pho4 (S. cerevisiae) (UniProt P07270)
# T1 sequence: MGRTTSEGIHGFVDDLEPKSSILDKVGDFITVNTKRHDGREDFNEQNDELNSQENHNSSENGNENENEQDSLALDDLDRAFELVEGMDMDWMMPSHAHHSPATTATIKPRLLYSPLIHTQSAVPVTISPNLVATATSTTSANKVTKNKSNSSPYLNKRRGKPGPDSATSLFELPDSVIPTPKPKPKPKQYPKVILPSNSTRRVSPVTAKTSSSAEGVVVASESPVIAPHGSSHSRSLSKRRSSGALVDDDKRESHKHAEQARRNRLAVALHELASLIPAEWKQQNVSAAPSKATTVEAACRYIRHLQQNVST
# Experiment: relative binding free energy (BET-seq); higher = weaker binding
# Details: reference: library average
row,Sequence,relative binding free energy [kcal/mol]
1,ATCTTCACGTGGTGGC,0.24
2,TGGTTCACGTGGGACA,0.08
3,GGATGCACGTGCTGGA,-0.06
4,TATTACACGTGGTGCG,-0.13
5,TCTGTCACGTGTACGG,0.02
6,AATCACACGTGGTTTG,0.01
7,ATTTGCACGTGGGGTC,-0.12
8,AGGTACACGTGGAGAG,0.19
9,TGAGGCACGTGGGAGC,-0.14
10,GGTTTCACGTGGTCGA,0.17
11,AATGGCACGTGGTGTA,-0.12
12,AGGAACACGTGTTGGT,0.12
13,CGTGGCACGTGGTGAG,-0.11
14,CTGAGCACGTGGCAGG,-0.12
15,CAGAGCACGTGAGGGG,0.18
16,TGGTGCACGTGCTGTT,-0.11
17,AGTTACACGTGAGATA,0.33
18,ATGGTCACGTGCATGT,-0.02
19,GGGCTCACGTGGCTTG,0.28
20,GGAATCACGTGCGTGT,0.06
21,ACTGTCACGTGCTGTG,0.05
22,CGAGGCACGTGATTGG,0.13
23,GACGTCACGTGTGTGG,0.1
24,CCGGACACGTGGGGGG,-0.13
25,CGAGTCACGTGCGGTT,0.2
26,CTAGTCACGTGGTGGG,-0.02

row,Sequence,relative binding free energy [kcal/mol]
1,TGTGTCACGTGAGACT,0.31
2,AGTGGCACGTGTGCCT,-0.1
3,ACAGGCACGTGAAGTT,0.24
4,TACGTCACGTGAAGTT,0.4
5,GCGGACACGTGGTGCG,-0.05
6,GGAAGCACGTGGATGT,-0.04
7,ATGGGCACGTGCAGCG,-0.04
8,ACAAGCACGTGAGGGG,0.19
9,GGGGGCACGTGGATAG,-0.06
10,TCGTACACGTGGCGGT,0.06
11,GGTGACACGTGCTAGG,0.02
12,CGTTGCACGTGTTCGG,-0.04
13,TGGCTCACGTGGGTAT,0.07
14,TTTAACACGTGCTGGT,-0.06
15,TAAGTCACGTGTCGGC,0.19
16,GGGATCACGTGCGGGT,0.13
17,GTGTCCACGTGGAAGG,0.23
18,TCTGTCACGTGGGGGG,-0.06
19,GGGGACACGTGGGCCG,-0.02
20,TATAACACGTGGGGGG,-0.16
21,TAGGGCACGTGACATG,-0.05
22,GAATGCACGTGGAGTA,0.09
23,TTGACCACGTGTTGAT,0.11
24,GATGTCACGTGAGTGC,0.26
25,TTGGGCACGTGTAGGT,0
26,TATTTCACGTGGGCCT,0.15

row,Sequence,relative binding free energy [kcal/mol]
1,TGGAGCACGTGGGCCT,-0.29
2,TTCTTCACGTGTTATA,0.26
3,AGCTTCACGTGTGTCG,0.28
4,CTCTGCACGTGGGTTT,-0.2
5,CATGTCACGTGATAAG,0.38
6,GAGCTCACGTGAGGGC,0.41
7,GTCGGCACGTGTTGGG,0.02
8,GATGACACGTGTTAGG,0.08
9,GTGTACACGTGGGCCT,-0.13
10,TGCATCACGTGTGAGT,0.23
11,CAATTCACGTGTTTGG,0.18
12,TAAGACACGTGGAGTG,0.03
13,GTAGTCACGTGGGCAT,0.04
14,AGGCGCACGTGTATGA,0
15,GGGTGCACGTGCCTGG,-0.11
16,TAGTACACGTGATTGA,0.13
17,GTTCACACGTGGAGGG,0.25
18,TAAGTCACGTGGGTGA,-0.08
19,GGGTTCACGTGGGACT,0.24
20,TAGGGCACGTGGGGTA,-0.26
21,ATTCTCACGTGTATTA,0.07
22,GGAATCACGTGTTTTG,0.21
23,TATCTCACGTGTTTAG,0.19
24,ATTGTCACGTGTGTAG,0.12
25,CTGAACACGTGGTGTG,-0.12
26,TTTGGCACGTGTGCTG,-0.08

row,Sequence,relative binding free energy [kcal/mol]
1,GGTTTCACGTGTAGGA,0.25
2,TCGGCCACGTGGTTTT,-0.01
3,GCTATCACGTGTGATT,0.38
4,TGAGTCACGTGGCATG,-0.05
5,GTGTTCACGTGCTGTT,0.26
6,GTGGTCACGTGGGGAG,0.06
7,AGTGGCACGTGAATCT,0.19
8,AGGATCACGTGCTAGT,0.01
9,ATGGACACGTGTGGGA,0.11
10,TAGTGCACGTGTTGTC,-0.08
11,GACGTCACGTGTTTAG,0.32
12,GTCGGCACGTGGGTGT,-0.15
13,TTAGTCACGTGATTTA,0.15
14,GTAAGCACGTGTAATA,0.19
15,TATGACACGTGCTGTT,0.05
16,TGGGGCACGTGCTGAT,-0.09
17,TGGAACACGTGTTTCG,0.21
18,TAGCTCACGTGTGTAG,0.24
19,AATGGCACGTGTTAAT,-0.03
20,CGTGTCACGTGTTATT,0.22
21,TATATCACGTGGTTTA,-0.01
22,TTTGTCACGTGCTTCG,0.11
23,CGTTTCACGTGGGGTC,0.2
24,TTTGACACGTGTCGGT,-0.05
25,TAAGCCACGTGGTTTA,-0.1
26,TCGTACACGTGTGCGT,0.05

row,Sequence,relative binding free energy [kcal/mol]
1,ATGTGCACGTGATAAT,0.05
2,GTGGACACGTGTTCAT,0.08
3,ATTGTCACGTGTATGT,0.16
4,TAATACACGTGGGGGA,0.08
5,AAAGGCACGTGGTACG,-0.19
6,GTTATCACGTGAACGG,0.28
7,GTTGGCACGTGCATGC,-0.18
8,AGTAGCACGTGCTTAT,-0.03
9,TAAATCACGTGTAGGG,0.06
10,AGTTACACGTGAGAGA,0.34
11,TTGGACACGTGATTTA,0.11
12,AGTGGCACGTGGTTTA,-0.16
13,AGGGGCACGTGCGAGA,-0.22
14,TTTAGCACGTGGATTG,0.01
15,GATTGCACGTGGATGA,0.13
16,AAATGCACGTGCGGGT,-0.11
17,AGTCACACGTGGATGG,0.13
18,AGTGTCACGTGAGTCG,0.22
19,TGGACCACGTGGATTG,0.1
20,TGTTACACGTGGTGCA,-0.01
21,AGTCACACGTGTTAGT,0.03
22,GTGGGCACGTGGCACG,-0.37
23,GTGCTCACGTGGTTCG,0.25
24,GAGCGCACGTGATTGG,0.11
25,AATATCACGTGGAATG,0.21
26,ATCGCCACGTGGTGTG,-0.13

row,Sequence,relative binding free energy [kcal/mol]
1,AAGCGCACGTGTGGGT,-0.08
2,AGAGTCACGTGAGTGA,0.23
3,TTAGGCACGTGCGTGG,-0.25
4,TGTAACACGTGGGTAC,-0.2
5,TTAAACACGTGCAGGT,0.12
6,GGAGGCACGTGTGGTA,-0.04
7,TTTGGCACGTGTTTGA,-0.02
8,TGTGTCACGTGAAGCG,0.3
9,GGTGCCACGTGGGGGG,-0.18
10,AGTATCACGTGTACGT,0.05
11,TTGAACACGTGAGCGG,0.05
12,CGGGCCACGTGATGTG,-0.04
13,GCTTGCACGTGTGATA,0.1
14,TTTAGCACGTGCGAGG,-0.09
15,CAGGTCACGTGGTTTT,0.16
16,ATTATCACGTGGACGT,0.17
17,AATTACACGTGGGGGG,-0.04
18,TGGCGCACGTGTCGTG,-0.04
19,GTTTGCACGTGCGCGT,-0.06
20,GTTTTCACGTGATATT,0.35
21,GAGCCCACGTGGTGGG,-0.1
22,TTTTGCACGTGTCTCG,0.07
23,AAAGTCACGTGTCGTT,0.14
24,AGGATCACGTGTACGG,0.14
25,ATGTGCACGTGGTCGG,-0.01
26,CTTGGCACGTGTCGTT,-0.05

row,Sequence,relative binding free energy [kcal/mol]
1,GTATTCACGTGCAATG,0.28
2,TTTTGCACGTGTCAAG,-0.02
3,ATGGTCACGTGTCGGG,0.11
4,GTTTGCACGTGGGCCT,-0.25
5,TGCAACACGTGGGTTA,-0.09
6,GGTTCCACGTGGTTTA,0.08
7,GTATTCACGTGTGGTC,0.31
8,ACGGTCACGTGGGGTA,-0.06
9,ATTTGCACGTGCGATG,-0.07
10,AGTGACACGTGTGCTT,-0.05
11,ATTGTCACGTGTCAGG,-0.02
12,GGGGGCACGTGTGTGT,-0.03
13,GAGAACACGTGAGTTT,0.39
14,TCGGACACGTGGGGTT,-0.04
15,TAGAGCACGTGGTTCG,-0.04
16,TTGAACACGTGTTGAG,0.03
17,GTGAGCACGTGGGTTC,-0.25
18,AAGGTCACGTGATTAT,0.08
19,GCGATCACGTGGGGTG,0.03
20,ACTGGCACGTGGCATG,-0.16
21,TAGGGCACGTGCTTAG,-0.2
22,GGGTGCACGTGTGAGG,0.2
23,GATGGCACGTGAGTTG,0.19
24,CGGTCCACGTGTGGGT,-0.03
25,CGGTTCACGTGTCGTT,0.29
26,CGTTTCACGTGTGCTG,0.27

row,Sequence,relative binding free energy [kcal/mol]
1,ATGTGCACGTGATGCG,0.05
2,ATGGTCACGTGAAGGA,0.23
3,CGCGGCACGTGGTAGT,-0.21
4,ATGTCCACGTGTGATG,0.12
5,CCTAGCACGTGAGGGT,0.11
6,TTGTTCACGTGATTGT,0.36
7,AAGGGCACGTGTCGGA,-0.06
8,TAACGCACGTGTGGTG,-0.1
9,CTTTACACGTGGAGGG,-0.06
10,TGGTACACGTGAAGGA,0.26
11,TGATCCACGTGGTAGT,-0.1
12,TTCTACACGTGGTGAA,0.14
13,TGTACCACGTGATTGG,0.08
14,TGGGTCACGTGTGCCG,0.07
15,TGGGGCACGTGCAGTC,-0.14
16,ACGGTCACGTGAGTGC,0.31
17,AATAACACGTGTAGTT,0.02
18,TCTGTCACGTGAGGGA,0.24
19,TTGCGCACGTGCGGGA,-0.26
20,TTATTCACGTGGGGTG,0.13
21,GGTTGCACGTGAACTG,0.31
22,CATGGCACGTGGTGTA,-0.18
23,AGAGTCACGTGTAGCG,0.25
24,TGTGTCACGTGAAAGT,0.16
25,TGTTACACGTGGAGCG,0.07
26,ATGATCACGTGGATTT,0.15

row,Sequence,relative binding free energy [kcal/mol]
1,TTTAGCACGTGGTTAT,-0.14
2,GTCGTCACGTGTGGAA,0.07
3,GAGGCCACGTGTGGGG,0.09
4,GTGGACACGTGTGGTT,0.2
5,TGTGGCACGTGTGTAA,-0.07
6,TTAAGCACGTGGGTCG,-0.26
7,GAGCTCACGTGAAGTT,0.62
8,GTATTCACGTGTCGGT,0.24
9,TTGGTCACGTGTGAAC,0.21
10,TTTGTCACGTGGTTAC,0.04
11,AGTGGCACGTGTATTA,-0.12
12,TCGGGCACGTGAATGG,0.14
13,CGGTACACGTGAGGTT,0.25
14,GTATTCACGTGGGAAA,0.25
15,TTAATCACGTGTCTTA,0.08
16,AGTAACACGTGGAGTA,0.12
17,GTTTGCACGTGTTGAA,0.18
18,TCTTACACGTGGTGCT,0.1
19,ATATGCACGTGTGGCG,0.01
20,TAGAACACGTGTTTAG,0.03
21,TTGTTCACGTGTTGTA,0.22
22,TAAGACACGTGGGAGT,-0.02
